Out of some 94,000 compounds screened, about 4,000 (4.3%) were called active. Inconclusive results, whose numbers are uncertain, are shown with a selection of clear calls. Calls follow the shape of the dose curve; as a rule, active = well fitted inhibition curve with a large enough effect; inconclusive = small, poorly fitted or top-dose-only effect; inactive = no such curve, though single readings can be large or run the other way. Potencies of inconclusive entries are doubtful fits and often do not repeat.
Test: Cytotoxic Profiling in NIH 3T3 Cell Line of Diverse Libraries Using Quantitative High-Throughput Screening; also: nearly all actives have a fitted effect of over 55% in size
Conditions: NIH 3T3 viability, CellTiter-Glo ATP luminescence, 48-72 h; series mostly up to 96.7 µM
Summary of the method: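 Cytotoxicity was measured by CellTiter-Glo ATP luminescence after 48 or 72 h compound exposure at 37 °C. Mouse NIH 3T3 fibroblasts were seeded at 400 cells/well and dosed by 23 nL pin transfer.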
For `Cc1noc(-c2ccccc2Cl)c1C(=O)NC(C)c1ccccc1` (centres undefined), the Potency was inconclusive: 39.8 µM [inhibitor, partial curve].
In the case of `Cc1cc(C)n(Cc2ccc(C(=O)N3CCC(c4noc(-c5cccnc5)n4)C3)o2)n1` (centres undefined), the Potency is reported as “inactive”.
For `CC1=C[C@@H](CN(C)CCc2ccccn2)[C@H](C(C)C)C[C@H]1Cc1nnc(-c2ccncc2)o1`, the Potency was inconclusive: 50.1 µM [inhibitor, partial curve, poor fit].
For `C#CCN(C)Cc1nc(C2(O)CCN(CCC(C)C)CC2)cs1`, the Potency was inconclusive: 126 µM [inhibitor, single point].
With `O=C1CCN(C(=O)C2CCN(C(=O)C3(c4ccccc4)CC3)CC2)CCCCCCN1` the Potency was “inactive”.
For `COc1ccc(-c2cc(C(=O)NCc3c(C)cc(C)[nH]c3=O)c3c(c2)N(C)CCO3)cn1`, the Potency was inconclusive: 56.2 µM [inhibitor, partial curve, poor fit].
With `Cc1noc(C)c1-c1cc2cc(CO)oc2c(-c2ccc(F)c(Cl)c2)n1` the Potency was active: 22.4 µM.
With `O=C(NC1CCN(c2cc(C(F)(F)F)ncn2)CC1)c1ccco1` the Potency was “inactive”.
With `CC(C)c1ccc(NC(=O)c2ccc3c(c2)N(C)C2CCCN2C3=O)cc1` (centres undefined) the Potency was inconclusive: 44.7 µM [inhibitor, partial curve, poor fit].
With `COc1ccc(C(=O)N2CC(Oc3ccccc3-c3nc(-c4ccccc4)no3)C2)cc1` the Potency was active: 31.6 µM.
With `O[C@H]1[C@H](NCc2ccc(OC(F)(F)F)cc2)[C@H]2CO[C@H](O2)[C@@H]1N1CCC(Cc2ccccc2)CC1` the Potency was inconclusive: 79.4 µM [inhibitor, partial curve, poor fit].
For `O=C(NCCCN1CCCc2ccccc21)C1Cn2cccc2C(=O)N1Cc1ccccc1` (centres undefined), the Potency was inconclusive: 50.1 µM [inhibitor, partial curve, poor fit].
For `COc1ccc(-c2cc(N3CCC(NC(=O)Cc4ccc(F)cc4)CC3)n[nH]2)cc1`, the Potency was inconclusive: 44.7 µM [inhibitor, partial curve, poor fit].
For `Cn1cc(C(=O)NCC2CN(C(=O)c3ccccc3)CC23CN(c2ccccc2)C3)cn1` (centres undefined), the Potency was inconclusive: 112 µM [inhibitor, partial curve, poor fit].
For `Cc1ccccc1C(=O)N1CCCN(CCn2nc3n(c2=O)CCCC3)CC1`, the Potency was “inactive”.
With `O=C(N[C@H]1CCN2C(=O)c3cc(-c4ccccc4F)ccc3NC(=O)[C@H]12)c1cnccn1` the Potency was “inactive”.
For `CN(C)C(=O)Cc1c[nH]c2ncc(-c3cnn(C)c3)cc12`, the Potency was inconclusive: 112 µM [inhibitor, partial curve, poor fit].
In the case of `CCn1ccc(C(=O)N2CCC(c3n[nH]c(=O)n3-c3ccc(C)cc3)CC2)n1`, the Potency is reported as inconclusive: 44.7 µM [inhibitor, partial curve, poor fit].
For `O=c1c2nc(-c3ccc4c(c3)OCO4)ccc2ncn1-c1ccc(F)cc1F`, the Potency was inconclusive: 14.1 µM [inhibitor, full curve, poor fit].
With `CN1Cc2nc(NCCOc3ccccc3)ccc2OCC1=O` the Potency was inconclusive: 79.4 µM [inhibitor, partial curve].
For `COc1ccc(-c2nccc3c(=O)cc(N4CCOCC4)oc23)cn1`, the Potency was inconclusive: 11.2 µM [inhibitor, partial curve, poor fit].
With `O=C1OC[C@@H]2CCN(Cc3ccccc3Cl)Cc3ccc(F)cc3N12` the Potency was “inactive”.
For `O=C(NC1CCCCCC1)c1cn2cc(-c3ccc(C(F)(F)F)cc3)sc2n1`, the Potency was “inactive”.
For `CC(C)NC(=O)C1COC2(CCN(C(=O)c3ccc(F)cc3F)CC2)N1C(=O)c1ccccc1` (centres undefined), the Potency was “inactive”.
In the case of `CNC1CCc2nn(C)c(=O)n2CC1` (centres undefined), the Potency is reported as “inactive”.
For `COC(=O)c1ccc(CN2C(=O)[C@@H]3C[C@@H](O)CN3C3(CN(CC(C)C)C3)C2=O)cc1`, the Potency was “inactive”.
For `Cn1ncc2c(C(=O)NCc3ccccn3)cc(-c3cccc(F)c3)nc21`, the Potency was inconclusive: 44.7 µM [inhibitor, partial curve].
For `CCOCCCNC(=O)CCC1CCN(C(=O)c2ccc(C)cc2)CC1`, the Potency was “inactive”.
For `Oc1ccc(NCCN2CCCC2)cc1`, the Potency was active: 44.7 µM.
In the case of `O=C(c1ccccc1F)N1CCC(Cc2nc(C3CCOCC3)no2)CC1`, the Potency is reported as inconclusive: 39.8 µM [inhibitor, partial curve, poor fit].
With `COC(=O)NC1CCN(Cc2cccc(-c3cccc(C)c3)c2)CC1` the Potency was inconclusive: 50.1 µM [inhibitor, partial curve, poor fit].
In the case of `CC(C)(C)CC(=O)Nc1nc2c(s1)C[C@@H]1[C@](C)(CO)[C@H](O)CC[C@@]1(C)[C@@H]2CC(=O)Nc1cccc(O)c1`, the Potency is reported as inconclusive: 50.1 µM [inhibitor, partial curve, poor fit].
With `CCCCCNC(=O)c1cc(-c2ccc(C(F)(F)F)cc2)nc2c1cnn2C` the Potency was inconclusive: 31.6 µM [inhibitor, full curve].
With `CN(C)C(=O)c1cccnc1OC1CCN(S(=O)(=O)Cc2ccc(Cl)cc2)C1` (centres undefined) the Potency was “inactive”.
In the case of `CCOC(=O)C1CCCN(C(=O)c2nc3sccn3c2-c2ccc(C)cc2)C1` (centres undefined), the Potency is reported as “inactive”.
In the case of `COc1cccc(-c2ccc(C(=O)N3CCC(NC(=O)NC4CCCC4)CC3)cc2)c1`, the Potency is reported as “inactive”.
For `COc1ccc(-c2ccnc(N[C@H]3CO[C@H]4[C@@H]3OC[C@@H]4NC(=O)Nc3cccc(C#N)c3)n2)cc1`, the Potency was inconclusive: 50.1 µM [inhibitor, partial curve, poor fit].
With `CN1CCC(C2CCN(S(=O)(=O)c3cc(F)ccc3F)C2)CC1` (centres undefined) the Potency was “inactive”.
In the case of `COc1cccc([S+](=O)([O-])N2CCC3(CC(C(C)C)=NO3)C2)c1` (centres undefined), the Potency is reported as inconclusive: 22.4 µM [inhibitor, single point].
For `COc1ccc(-c2nc(C(C)C)nc3c2CN(C(=O)c2ccc(C(F)(F)F)cc2)CC3)cc1`, the Potency was inconclusive: 44.7 µM [inhibitor, partial curve, poor fit].
In the case of `Cc1ccc(C2Cn3nnc(-c4noc(-c5cccnc5)n4)c3CO2)cc1` (centres undefined), the Potency is reported as inconclusive: 39.8 µM [inhibitor, partial curve].
For `CCn1c2c(c(=O)n1-c1ccccc1)CCN(C(=O)CCc1cccnc1)C2`, the Potency was inconclusive: 112 µM [inhibitor, single point].
For `O=C(NCc1ccccn1)c1nc2sccn2c1-c1ccc(F)cc1`, the Potency was inconclusive: 50.1 µM [inhibitor, partial curve, poor fit].
With `O=C(NCc1ccc(Cl)cc1)c1ccc2cc[nH]c2n1` the Potency was inconclusive: 79.4 µM [inhibitor, partial curve, poor fit].
For `COc1ccccc1NC(=O)N1CCC(N2C(=O)C3(CCCCC3)C2c2ccncc2)CC1` (centres undefined), the Potency was “inactive”.
For `CC1(c2cccnc2)N(CC2CC2)C(=O)OC12CCN(C(=O)c1ccc(Oc3ccccc3)cc1)CC2` (centres undefined), the Potency was inconclusive: 44.7 µM [inhibitor, partial curve, poor fit].
For `O=C(c1ccccc1)N1CCC2(CC1)CCN(CCc1ccccc1)c1ccccc1O2`, the Potency was inconclusive: 50.1 µM [inhibitor, partial curve, poor fit].
With `COCCNC(=O)C1CCCCN1Cc1ccc(-c2ccsc2)cc1` (centres undefined) the Potency was inconclusive: 89.1 µM [inhibitor, partial curve, poor fit].
For `O=C(Nc1ccccc1)N1CCN(C(=O)c2nc3cccnc3n(Cc3ccccc3)c2=O)CC1`, the Potency was inconclusive: 35.5 µM [inhibitor, partial curve].
For `COc1ccccc1-c1ccc(CN2CCCCC2C(=O)NCc2ccc(F)cc2F)cc1` (centres undefined), the Potency was inconclusive: 17.8 µM [inhibitor, full curve, poor fit].
With `Cc1cn2nc(C(=O)NCc3cccc(Cl)c3)cc2c(N(C)Cc2ccccc2)n1` the Potency was inconclusive: 28.2 µM [inhibitor, partial curve].
For `CSc1ccc(C(=O)N2CC(=O)N(Cc3ccc(Cl)cc3)CC(O)C2)cc1` (centres undefined), the Potency was “inactive”.
With `CC(C)c1nc(C(=O)N(C)C2CCCN(CCCc3ccccc3)C2)cs1` (centres undefined) the Potency was “inactive”.
In the case of `Cc1ccsc1CN1CCOc2cc([S+](=O)([O-])N(C)C)ccc2C1`, the Potency is reported as inconclusive: 44.7 µM [inhibitor, partial curve].
With `CCCCCCNC(=O)Cc1csc2nc(C)c(-c3cc(C)n(-c4ccc(F)cc4)n3)c(=O)n12` the Potency was inconclusive: 35.5 µM [inhibitor, partial curve].
In the case of `CC(C)c1ccc(CC(=O)N2CCCc3ncc(C(=O)Nc4ccc5[nH]ccc5c4)cc32)cc1`, the Potency is reported as inconclusive: 31.6 µM [inhibitor, full curve].
In the case of `COc1ccc(C2=NOC3(CCN([S+](=O)([O-])c4cccc(C(F)(F)F)c4)C3)C2)cc1` (centres undefined), the Potency is reported as inconclusive: 28.2 µM [inhibitor, partial curve].
With `COc1ccccc1C1NC(=O)N(CC(=O)N2CCCC2)C2=C1C(=O)OC2` (centres undefined) the Potency was “inactive”.
With `O=C(CCc1ccccc1)N1CCC2(CC1)NC(=O)N(c1ccccc1)N2` the Potency was inconclusive: 20 µM [inhibitor, full curve, poor fit].
With `Cn1ccc2c(C(=O)NCCc3ccccn3)nc(-c3cccc(N4CCOCC4)c3)cc21` the Potency was inconclusive: 44.7 µM [inhibitor, partial curve, poor fit].
In the case of `COc1ccc(Nc2ccnc(N3CCCC(C(=O)NCC(F)(F)F)C3)n2)cc1` (centres undefined), the Potency is reported as inconclusive: 44.7 µM [inhibitor, partial curve].
In the case of `O=C(NCCCO)C1CC(=O)N(c2n[nH]c3cc(Br)ccc23)C1` (centres undefined), the Potency is reported as inconclusive: 70.8 µM [inhibitor, single point].
In the case of `CC(C)Oc1ccc2c(NC(=O)CN3CCCC3=O)nn(Cc3ccccc3)c2c1`, the Potency is reported as “inactive”.
In the case of `O=C(NC1CCN(c2ccc3nnc(-c4ccccc4)n3n2)C1)c1ccccc1Cl` (centres undefined), the Potency is reported as active: 31.6 µM.

Reference: PubChem BioAssay AID1345082 (National Center for Advancing Translational Sciences (NCATS), 2018)
Potency is read from the fitted curve at half-maximal effect; tags tell the direction and shape of the fitted curve.
